This is an account of results in PMC12136788.

The chains are these.
T1: UNK ZnF1-6 (called full-length) (human, UniProt Q9C0B0 30-357)
T1 sequence: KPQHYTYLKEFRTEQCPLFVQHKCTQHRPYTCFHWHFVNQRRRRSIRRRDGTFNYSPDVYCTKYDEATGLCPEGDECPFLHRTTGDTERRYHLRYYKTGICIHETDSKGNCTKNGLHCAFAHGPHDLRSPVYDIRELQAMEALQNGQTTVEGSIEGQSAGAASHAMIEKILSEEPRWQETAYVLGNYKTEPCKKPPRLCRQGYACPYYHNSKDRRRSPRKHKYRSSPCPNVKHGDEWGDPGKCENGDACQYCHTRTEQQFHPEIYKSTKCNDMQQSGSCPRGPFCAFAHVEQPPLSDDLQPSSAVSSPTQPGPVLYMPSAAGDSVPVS

B1: chr10:16593140:16593241:-|3pUTR|ENSG00000148484|unk|total|mutant (ssRNA)
RNA: GGGAGUUCUACAGUCCGACGAUCUUAUUUUUCUUUUCACUCUCUUUCUAAUGCUUCCCACCUUACCUUUCCGAUUCUUUUGCCCGGUGGGAGAUUGUUAUAAGGUCUUUAAACCAUUUCCAUUUGUUUCUUUAACAUUACCAACAACAGAGGAUUGAGCAUCA
B2: chr4:175634378:175634624:-|3pUTR|ENSG00000150625|msi1|total|mutant (ssRNA)
RNA: GGGAGUUCUACAGUCCGACGAUCUUUCUUAUGUUUUGAAAAGAAAACCGCUUUUUAUACUUUUCCGUUUUGAUUUCGGUAACCCGUUUAACUACAGGUAACCUUCAAAGGGACCAUUGUACAUUAUGAACAACCGACCGAGAUCAACAGAGGAUUGAGCAUCA
B3: chr2:85327303:85327429:-|CDS|ENSG00000152291|msi1|FALSE|bound_elsewhere (ssRNA)
RNA: GGGAGUUCUACAGUCCGACGAUCACCCAAAAAGGCAGCACUAGCAAGUCGGGUUCGGAGGCGCAGACCACAAAAGACAGCACUAGUAAGUCGCAUCCGGAGCUGCAGACUCCAAAAGACAGCACUGGCAAAUCGGGUGCGGAGCAACAGAGGAUUGAGCAUCA
B4: chr10:30313878:30313980:-|CDS|ENSG00000107951|unk|FALSE|unique (ssRNA)
RNA: GGGAGUUCUACAGUCCGACGAUCUGUUUUUAUAUUUAAGCCCUUCAUGUACUUACUCAUUUUUUCUUCUGUGUAAUAAUCUAUAGGGAAGGGAGCAAAACAAACCUGAUUCUUCUCCUCUGUACAUUCAGAAUCCAUUUGAAACAACAGAGGAUUGAGCAUCA
B5: chr1:77949188:77949289:-|CDS|ENSG00000162613|unk|total|mutant (ssRNA)
RNA: GGGAGUUCUACAGUCCGACGAUCUUCAAAGGUCAGGCAGUUCCUGCUCCGACUGGGGCUCCUCCAGGUGGUCAGCCAGAUUACCGUGCAGCCUGGGCUGAGUAUUACCGACAACAAGCAGCCUAUUAUGCCCAGACAAGUCCCCAACAGAGGAUUGAGCAUCA
B6: chr10:113876644:113876745:+|CDS|ENSG00000196865|msi1|FALSE|bound_elsewhere (ssRNA)
RNA: GGGAGUUCUACAGUCCGACGAUCGGUUAAUGAUGCAGAUGCCAGCCUUUGGCAAGAACUAGAAGUUUCCUGCUGGCCAACUCUAGUCAUACUUGGACCUCGUGGAAACAUGUUGUUUUCUUUGAUUGGAGAGGGACACAAAGACAACAGAGGAUUGAGCAUCA
B7: chr8:23572142:23572248:+|3pUTR|ENSG00000147454|unk|total|mutant (ssRNA)
RNA: GGGAGUUCUACAGUCCGACGAUCCCUCCCUGGGCAGAAUGCCGCUUUUCUGCUUCACUGUGGCAGCCUCCUCCCUGGAUCCUCCGAUCCCAGAGGAGGGAAGAAAAUUUGCAGUGACUGAAAACAGUAAAAAAAAAAAAAAAACAACAGAGGAUUGAGCAUCA
B8: chr2:159967538:159967678:-|CDS|ENSG00000153246|control|control|control (ssRNA)
RNA: GGGAGUUCUACAGUCCGACGAUCUAGUGAAGAGUGUUCAGUUUCUAUGCCUAGUAUCUGUAAGCGAAAAAAGGUUUGGCUCAUAGAGAAAAAGAAAGAUACACCAAAACAACAUGGAACGUGUCCCAAAGGAUGGCUAUAUUUCAACAGAGGAUUGAGCAUCA
B9: chr19:19111484:19111585:+|3pUTR|ENSG00000181035|msi1|FALSE|unique (ssRNA)
RNA: GGGAGUUCUACAGUCCGACGAUCAGCCUCAUGUCUAUCCUAGACCCUGCAAGCAGCUGGGUCCCCAAGAGUGCAUCUCCCCCUAGAGUUGCCUGCCCAUGCCCACCUGCUUUGUAACCUUCCCAGGAGAUUCAUGCUUGCUCUCAACAGAGGAUUGAGCAUCA
B10: chr13:66631209:66631411:-|CDS|ENSG00000184226|control|control|control (ssRNA)
RNA: GGGAGUUCUACAGUCCGACGAUCCCUGAUGGCUCCCAGGAAAGCUGCAGUGACAGUGGUCUAGGAGACCAUGAGCCGGUGGGUAGUGGAACCCUGAUCUCACACCCUCUUCCUCUGGUUCAGCCACAGGACGAAUUCUAUGACCAACAGAGGAUUGAGCAUCA
B11: chr6:149379354:149379455:+|CDS|ENSG00000055208|msi1|total|mutant (ssRNA)
RNA: GGGAGUUCUACAGUCCGACGAUCAGGGGUGGUGUCCCCUACCUUUGAACUUACAAAUCUUCUUAAUCAUCCUGAUCAUUAUGCCGAAACCGAGAAUAUUCAGCACCUCACGGACCCUACAUCCGCACAUGUGGACCGAAUAAGCAACAGAGGAUUGAGCAUCA
B12: ENSG00000130560:stop:overlap|stop_codon|ENSG00000130560|stop_codon|NA|stop_codon (ssRNA)
RNA: GGGAGUUCUACAGUCCGACGAUCCAGAAACGGGGCCUGUCAUGCUGCAGAUCUCUAGAAUCUUCCAGACACUAAAUCGCACGUAGGUGGCGUUGUUCCACUCGGCUAUCAGGCCACAGCAGCCCCCUGGUGCGGCCCGAGACCCAACAGAGGAUUGAGCAUCA
B13: ENSG00000148248:stop:overlap|stop_codon|ENSG00000148248|stop_codon|NA|stop_codon (ssRNA)
RNA: GGGAGUUCUACAGUCCGACGAUCUGAUGUUCAUGACCCUCCUUCACUUUGACGCCAGCUUCUUUUCUCAGCCGUCUCAGCAGUAGCUACAUCAGCCUGAUGGAUAGAGACUUCAUGACGUGCAGCAGCUGGAACUUUUGUUUACAACAGAGGAUUGAGCAUCA
B14: chr17:49707729:49707944:-|CDS|ENSG00000121073|control|control|control (ssRNA)
RNA: GGGAGUUCUACAGUCCGACGAUCCUGCCGGUGCCGGUUGUGAGCGGGUCUCCAGUCGGCUCCUCUGGGCGUCUCAUGGCCUCUAGCAGCUCCCUGGUGCCCGACCGGCUGCGCCUGCCGCUCUGCUUCCUGGGUGUCUUUGUCCAACAGAGGAUUGAGCAUCA
B15: chrX:9032958:9033121:-|CDS|ENSG00000177138|control|control|control (ssRNA)
RNA: GGGAGUUCUACAGUCCGACGAUCCCAGGUUUCCUUAGCUUCCUUAGUGUGUCUUUGCGCUCACCAGGUUCGGGGAUCGCCUCUAGCUUCCCAGGACAACCAGCCACGGAUCCUGUGGGCAGGAGGGCUGCCAAGGCCCAGUUGCAACAGAGGAUUGAGCAUCA
B16: chr22:38485951:38486139:-|CDS|ENSG00000100201|unk|total|mutant (ssRNA)
RNA: GGGAGUUCUACAGUCCGACGAUCCCGCCGCACCACCUCAACUGGGAGAAGUUCACAGAGCUCCCGCCAGCAGUUCCGUGGGACCGGCCGGUCUGGGCAGCAGCCACAGCCACUGAUGUCACAACAGUUUGCACAGCCUCCGGGCAACAGAGGAUUGAGCAUCA
B17: chr6:116593178:116593279:+|3pUTR|ENSG00000111832|unk|total|mutant (ssRNA)
RNA: GGGAGUUCUACAGUCCGACGAUCUAUGAUUUUCCUUUCUUUUUUUCUAAGAAAAAAUUAUUUUCAGGAGAAUAUUCUUCUGACCGCUUUCAUCAUUGAACUUAAUAAACUGACCUUAAAAUUUCAAAUAUAAAAUGUUCAAGGCAACAGAGGAUUGAGCAUCA
B18: chr12:7729382:7729740:-|three_prime_utr|ENSG00000198178|control|control|control (ssRNA)
RNA: GGGAGUUCUACAGUCCGACGAUCAUCUACAUAUAAAUGAAAUAUUCUCCCUGGAAAUGUGUUUGGGUUGGCAUCCACCGUUGUAGAAAGCUAAAUUGAUUUUUUAAUUUAUGUGUAAGUUUUGUACAAGGAAUGCCCCUAAAACAACAGAGGAUUGAGCAUCA
B19: chr16:46956839:46956924:-|3pUTR|ENSG00000069345|msi1_unk|total|mutant (ssRNA)
RNA: GGGAGUUCUACAGUCCGACGAUCAUCAAUCCAGAUGAACUGAGGGACAUCUGUUGGUCUAUGUAUAACUUUUAAAAUUGGUACCGUAUCUACAGAGUGUAUAAUUUAAACUAACCACAAAGCUUUACAUCUUCAUUUUGACUGCAACAGAGGAUUGAGCAUCA
B20: chrX:53645320:53645442:-|CDS|ENSG00000086758|unk|total|mutant (ssRNA)
RNA: GGGAGUUCUACAGUCCGACGAUCUUAUUGGCUUCCUCUGAUAUGCAAGUGGUGCUGGCAGUCCUCAAUCUCCUAUAUGUAUUCCGCAAAAGAUCAAACUACAUCACUCGUCUGGGAUCUGACAAGAGGACCCCGCUGCUAACUCAACAGAGGAUUGAGCAUCA
B21: chr5:80438700:80438808:+|CDS|ENSG00000039319|unk|total|mutant (ssRNA)
RNA: GGGAGUUCUACAGUCCGACGAUCAGAUACAACCGAAAGUGAACCCAGCACAGCAGAUACCGUUGUUCCAAUCACUUGUGCUACCGAUUCUACAGCUGAUCCACAGGUCCGCUUCAACUCUAAUUACAUUGAUACCGAAAGUAACAACAGAGGAUUGAGCAUCA
B22: chrX:8528873:8532994:-|three_prime_utr|ENSG00000011201|control|control|control (ssRNA)
RNA: GGGAGUUCUACAGUCCGACGAUCAUGCACACUUCCAGAGGCAGUGGGAACUGCUCAGAGGCCCGGACUCUCCUAUGUGACUUUAGUGCAGGAAGAACUUCUGUCAAUCAUGGACGCAUCUGGAGACAAGUGAGAAACAGUAGACAACAGAGGAUUGAGCAUCA

This is one part of the list.

This assay deals with T1, UNK ZnF1-6 (called full-length). The assay can be described thus: nsRBNS (natural sequence RNA bind-n-seq); RBNS binding buffer (assumed for nsRBNS): 25 mM Tris pH 7.5, 150 mM KCl, 3 mM MgCl2, 0.01% Triton X-100, 500 ug/ml BSA, 20 U/ml SUPERase-In, 4 C; UNK is unkempt and MSI1 is Musashi-1; names of the RNAs are library labels; protein concentration not given here; high values mean tight binding.
Take B1: the binding signal is 0.873 enrichment R.
In turn, B2 came in with a binding signal of 0.196 enrichment R.
Then B3, with 1.03 enrichment R; and B4, with 0.602 enrichment R.
The figure for B5 is 0.648 enrichment R; for B6 it is 0.602 enrichment R; for B7 it is 0.647 enrichment R.
Molecule B8 displayed a binding signal of 0.378 enrichment R.
Then B9, with 0.762 enrichment R; and B10, with 0.557 enrichment R; and B11, with 0.569 enrichment R.
B12 yielded a binding signal of 0.382 enrichment R.
For the molecule B13, the binding signal was determined as 0.871 enrichment R.
The figure for B14 is 0.689 enrichment R.
The figure for B15 is 1.37 enrichment R.
The figure for B16 is 0.713 enrichment R; for B17 it is 0.574 enrichment R.
B18 had a binding signal of 0.623 enrichment R.
Then B19, with 0.758 enrichment R.
B20 returned a binding signal of 0.566 enrichment R.
Then B21, with 0.438 enrichment R; and B22, with 0.679 enrichment R.
